Reference: the RNAGym collection of RNA variant scans (doi:10.7554/elife.90254)
Read counts are not given, so values of variants with three or more changes are uncertain.

B1: LINE1-mini (parent)
chain: GGCAGAGCUCAACACAGCGUGGCAAAGUGGCUGUGGCUAGACUGCC

Variants of: B1
Assay: self-cleavage, relative activity (ratio to wild type); higher = more cleavage; in vitro, sequencing; the parent is a self-cleaving ribozyme

Variant	self-cleavage
A6C C13U C23A G40C	0.1
G1C C8A A16G G40U	0.01
G5U G19U U32A A39C G40A	0
G1U C13U C23U C31G A39U G44C	0.03
C18U C23A C42G C45A	0.11
C23G A24U C46A	0.72
G17C G29A C46A	0.05
G2U A11U A14C U32C A39C	0.02
G5U A6G C8U G27U	0.77
A16U G17C C45A	0.04
A12G U34G A41U	0.09
G1C C3U C18G G21C C37A	0.25
G2C C18U G21C U32A G40U C45A	0.08
A11U G33U A39C U43C	0.03
C10G G17C C18A G27A U28C G33C	0
G17A C18A U38A	0.04
G1C A4G G7U U9C G21U A24U C37G	0.03
C18U G29U C31G A41C	0.03
G36U A41G C45U	0.03
A11G C31A G40C	0.01
C13A C18U G27U G36U U43G	0.01
A14G A25C G40A C46A	0
C10A A11G C23U	0.01
C3U G7U C8U U9A C23A	0.33

Variant	self-cleavage
U9G C10U A12C A24C U34A	0.01
A14U A26C U34G	1.25
C23G A24U C37G C46G	0.03
G1C G35A C45G	0.02
G7U C13U A25U G33U	0.15
C10G U34G G36U	0.01
A6U U20A G27A G35C	0.09
C18A A26C G30C	0.65
C13U A26C U28A A39C	0.05
G1U A41G U43C	0.01
G22C C31A U32C C42A	0.01
G2A G5C U20C U28A	0.16
U20A U32A U38G G44U	0.02
A4U C8A U20G G29A	0.22
A14C G17C C23A A25C G36A G44U C45G	0
A12U G19C U28C G29C C37G	0
A16C C18A C23U A24G A39U C45A	0
G5U C31U G35A C45U	0.01
A4U A26G G35U G40A	0.01
C13U A14G G29C C31U	0.06
C10U G19A A25G G30C A41C C46G	0.02
G1C A4C C10U A16C A25G C45A	0
C10U A12C A41C C45U C46U	0.01
G19A G21A A41U	1.31

Variant	self-cleavage
C13G A16G U20G	0.01
C15G C23A G30U	0.05
C3A A6U A12U A25C A26C G27U	0.07
C3G C18G G35C C37G A39C	0.03
A24U U32C C46A	0.07
C10U C23U A39C	0.1
A6G G7U C13A G40A U43G	0.01
G5C C13U A16G G35U U43A	0.01
C10G G17C U28A U32C	0.01
C13G G30U G35U	0.63
C13U A16G G27U C42U	0.12
G17C C37A G40U U43A	0.02
C15G G19C A24C C42G	0.02
C13U G33A G35U	0.04
A14U G36A U43A	0.04
G2A G7A A11C G29C U34C G36U A41C C45U	0
A25G G30A U38G C45G	0.02
G1U A6G C13A C18A G21U U28G C45G	0.02
A12C G17U G21U G22C A25G U38C	0.01
A24U A25U C31G C46G	0.01
G1C G27C G30U C37G C46U	0.03
G1U C3U A16C C37A	0.11
A16C G30C U43C	0.36
A26G A39C A41G C42G	0.04

Variant	self-cleavage
G29U A41G U43C	0.04
U32C G35C C37A	0.03
G1A A4U C15U U28A	0.13
G7A G17C G29A G30U U43A	0.06
C8U C13U G19C A25C C37U	0.05
C3U U28A G33C	0.09
U34G G35A G36U	0.16
G7A A11U G17A G36C A39C	0.01
A4C C13U A24U C37U	0.09
G22U U34G A41U	0.1
G1A C18A G44U	0.15
G5C G17U G27A G30A G44U	0.03
U9A C18G G40U	0.23
G7U G19C G35A A41U	0.13
G2C U32A C37A	0.03
G1C G7A C15U G21C C31A	0.03
G7U A16U U32A U38G G40C	0.06
U9C A12C C13A G19C	0.02
C8A G27A C31U C42G	0.1
G1U U28A C31A U32C	0.03
G2C A24U G30U	0.23
A16C G33U G36U	0.03
G2U C3A C23A G27A C37G A39C C46U	0.02
A11G G27U G36A	0.03

Variant	self-cleavage
G1U C8G A12U C23G C31U	0.02
G27U A41U C46A	0.58
G5U G7C U9G C18U A24C C31U G35U	0.05
U20A C23A G44A	0.34
A16U G17A G30C G35A	0.1
G1A G44U C46G	0.06
G1U G2U A6C C10G A16U G30C	0
C15G U20A G21A U28C	0
C13U U20A G21U G40A C45G	0.03
G5C G7U C10U A24U G30U C46A	0.04
C3G A4U C10U G29C	0
A12U C13U G22U G29C G30A U32G	0.03
A4U U20A C37A	0.02
A16U G27A G33U	0.02
C23A A41U C42U	0.18
U9G C10A A24U C37U U38G	0
A11G G17A C37A	0.06
C3U U9C C15G G21C G35C	0.02
G19U A25G A39G	0.01
C3U A6C A16C G27C G36U G40A	0.09
G5U C8A G30A C45A	0.44
G2U A6G G30U C45G	0.08
C18G A24G G27U	0.34
G2C C13U G36A A41G C42A U43C G44U C45G	0.02

Variant	self-cleavage
G5A G22U G30U U38C C45G	0.14
G1U U34A G36C G40U C46G	0
C18A C23A G36C G44U	0.02
G1C A4C C18U	0.09
G1C G7A A16U G29C U32C C46A	0.01
A4U G27A C37A	0.09
C13U C18A G33C C45A	0.03
G17C C31U A39U	0.02
G7C C13A C15A G40U	0.04
A6C C15U U20C C42G	0.03
C8A C10G A16C G27A U32G	0
C15U G22C U38C C46A	0.04
C23A G35U C45U	0.27
G19A A24G G27A C31A C37G	0.01
C3U A14U C42A	0.07
C8U G21A U28G A41U	0.89
C3A G36A C37G	0.07
A4G A14G G27A	0.26
C3U U9C C10U G36C	0.05
C15A C18A G21A	0.03
G7C G17U A25C C31A	0.04
A4U A6C G40C C42G	0.02
A25G G33A C45U	0.01
C8G G29A G30U A39U	0.07

Variant	self-cleavage
G27U G33U U34C U43C	0.01
C10U G29C G30U G36U C37G	0.02
C18U U32G A41U	0.11
C10G C18U A26U C46G	0.03
C8A G19C C23A G36A	0.1
G7C U28C C46G	0.04
C10G A12G G29A	0.02
A11U C13A C15G A24U A25U G36U A39U	0.02
A4C G5U G22U G36C	0.09
C3A A26U C37G	0.21
A4C C10U A11C C18G A25U	0.02
A6G C13U A16G G21A U34A C42A	0.01
C13G G21C G44A	0.05
A4U C23A G27A C46A	0.28
G27C G30C C46A	0.26
G2U G19U G27C C45U C46A	0.04
A11C A16G G30U	0.01
C8U U20G A25G U32A C45G	0.13
U9A G21A U34G	0.08
U32A C37A A39G	0.01
G5U G21U C42A	0.45
G2A G22U A25C G29A	0.41
C3U A6U C18G C23U C45U	0.07
